Results on one molecule are retold here after patent EP4644423A1 (Biyopharma Co., Ltd, dated 2025).

The target of this assay is CGRP receptor on SK-N-MC cells (UniProt O60894 27-148; Q16602 23-461, limits assumed). The experiment in a line: cell-based or functional assay.
Sequence of UniProt O60894 (O60894 27-148 limits assumed, chain 1 of 2): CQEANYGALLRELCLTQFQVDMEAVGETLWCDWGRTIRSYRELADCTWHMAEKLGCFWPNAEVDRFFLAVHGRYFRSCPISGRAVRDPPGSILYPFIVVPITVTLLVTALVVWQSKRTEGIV
Sequence of UniProt O60894 (Q16602 23-461 limits assumed, chain 2 of 2, further chain): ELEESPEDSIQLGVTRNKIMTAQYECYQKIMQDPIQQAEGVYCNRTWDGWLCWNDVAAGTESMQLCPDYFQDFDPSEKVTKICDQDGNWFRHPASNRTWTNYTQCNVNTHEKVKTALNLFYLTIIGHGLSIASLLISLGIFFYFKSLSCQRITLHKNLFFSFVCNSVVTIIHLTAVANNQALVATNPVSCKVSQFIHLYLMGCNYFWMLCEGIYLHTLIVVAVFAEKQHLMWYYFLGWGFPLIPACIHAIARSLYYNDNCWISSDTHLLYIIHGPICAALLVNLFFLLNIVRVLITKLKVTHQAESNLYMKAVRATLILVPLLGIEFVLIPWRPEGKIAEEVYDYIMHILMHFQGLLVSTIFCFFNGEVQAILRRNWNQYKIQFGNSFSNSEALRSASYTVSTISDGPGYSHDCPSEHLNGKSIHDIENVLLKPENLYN

B1: 42hv10Fc (Fc fusion)
chain: QVQLVESGGGLVQPGGSLRLSCAASGRTFSGYVMGWFRQAPGKGLEFVAALRWSSSNTNYAASVKGRFTISRDYAKDTVYLQMNSLRAEDTAVYYCAAKRDRPYGSTWTPVAADYDTWGQGTLVTVSS[human IgG1 Fc with changes not written out]
On to B1, for which the “IC50 of inhibition of CGRP-induced cAMP production, against the prototype (42wtFc)” value was 2 fold better than the prototype.
